Reference: PubChem BioAssay AID504332 (National Center for Advancing Translational Sciences (NCATS), 2011)
The whole screen tested about 350,000 compounds, of which about 31,000 (8.9%) were called active. The shares of active, inactive and inconclusive entries below differ from those in the screen. Calls come from the whole dose curve; as a rule, active = well fitted inhibition curve with a large enough effect; inconclusive = small, poorly fitted or top-dose-only effect; inactive = no such curve, though single readings can be large or run the other way. Potencies of inconclusive entries are doubtful fits and often do not repeat.
% is set by controls: 0 for no effect and ±100 for the full control effect; potency is the fitted concentration of half-maximal effect; tags give direction and shape of the fitted curve.
Note: nearly all actives have a fitted effect of over 75% in size.

The compounds below were run against Histone-lysine N-methyltransferase EHMT2 (Homo sapiens) (UniProt Q96KQ7) (assay: qHTS Assay for Inhibitors of Histone Lysine Methyltransferase G9a). Details: G9a H3K9 monomethylation, AlphaScreen, 2 h; activity, negative = inhibition: at 59 µM (top of the series) unless noted.
UniProt Q96KQ7, sequence (Q96KQ7 whole entry, looked up): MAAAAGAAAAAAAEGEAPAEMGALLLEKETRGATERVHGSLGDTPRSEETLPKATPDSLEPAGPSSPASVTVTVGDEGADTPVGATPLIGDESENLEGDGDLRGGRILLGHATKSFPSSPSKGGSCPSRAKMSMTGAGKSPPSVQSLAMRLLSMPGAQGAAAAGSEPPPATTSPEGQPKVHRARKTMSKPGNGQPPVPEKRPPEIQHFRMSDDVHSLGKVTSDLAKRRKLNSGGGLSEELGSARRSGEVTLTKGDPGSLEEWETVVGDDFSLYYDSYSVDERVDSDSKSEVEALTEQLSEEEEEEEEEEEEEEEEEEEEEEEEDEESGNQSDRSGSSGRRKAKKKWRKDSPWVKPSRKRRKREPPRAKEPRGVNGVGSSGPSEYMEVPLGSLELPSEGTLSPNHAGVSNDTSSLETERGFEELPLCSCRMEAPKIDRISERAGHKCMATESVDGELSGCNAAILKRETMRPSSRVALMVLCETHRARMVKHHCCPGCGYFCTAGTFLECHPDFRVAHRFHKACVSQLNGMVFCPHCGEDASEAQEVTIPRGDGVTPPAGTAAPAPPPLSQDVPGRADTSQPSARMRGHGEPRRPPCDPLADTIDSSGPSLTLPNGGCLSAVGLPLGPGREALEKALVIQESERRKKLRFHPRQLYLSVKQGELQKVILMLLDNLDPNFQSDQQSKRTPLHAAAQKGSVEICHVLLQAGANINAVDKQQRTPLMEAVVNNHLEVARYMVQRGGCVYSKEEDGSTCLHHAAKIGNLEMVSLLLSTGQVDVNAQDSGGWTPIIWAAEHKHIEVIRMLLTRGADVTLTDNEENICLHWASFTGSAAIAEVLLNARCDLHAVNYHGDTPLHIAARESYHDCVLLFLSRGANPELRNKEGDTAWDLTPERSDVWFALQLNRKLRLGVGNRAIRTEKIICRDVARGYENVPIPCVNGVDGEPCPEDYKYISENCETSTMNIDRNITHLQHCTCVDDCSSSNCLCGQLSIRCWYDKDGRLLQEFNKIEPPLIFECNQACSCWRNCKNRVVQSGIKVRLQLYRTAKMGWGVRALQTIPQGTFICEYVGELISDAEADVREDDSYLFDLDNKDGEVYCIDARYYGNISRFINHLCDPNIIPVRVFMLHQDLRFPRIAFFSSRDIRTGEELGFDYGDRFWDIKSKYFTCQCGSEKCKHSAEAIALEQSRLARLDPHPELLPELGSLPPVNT
Procedure, shortened: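 AlphaScreen detection with an anti-monomethyl H3K9 antibody quantified product after a 2 h room-temperature reaction containing 500 nM biotinylated H3K9 peptide, 20 µM SAM and 20 nM enzyme, which had been preincubated 15 min with compound.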
`CCCc1nc2oc3c(NCCOCCO)ncnc3c2c2c1COC(C)(C)C2` was tested, and the Potency was inconclusive: 79.4 µM [inhibitor, single point].
`COc1ccc(S(=O)(=O)NCCN2CCOCC2)cc1[N+](=O)[O-]` was tested, and the Potency was active: 50.1 µM.
For `O=C(OCc1nnc(-c2ccccc2)o1)c1cccc(-n2cnnn2)c1`, the activity, negative = inhibition was inactive: 5.55% [at 0.501 µM].
In the case of `CC(=O)SCCC(=O)Nc1ccccc1`, the Potency is reported as inconclusive: 35.5 µM [inhibitor, single point].
`COc1ccc(NC(=O)C(C)SCc2ccccc2)cc1OC` (stereo unspecified) was tested, and the Potency was inconclusive: 28.2 µM [inhibitor, single point].
For `c1ccc(Cn2c(Nn3cnnc3)nc3ccccc32)cc1`, the Potency was inconclusive: 3.55 µM [inhibitor, partial curve].
`O=C(N=Nc1c(O)[nH]c2ccccc12)c1ccco1` was tested, and the Potency was “inactive”.
With `CCOC(=O)C1CCN(C(=O)C2CCCN(S(=O)(=O)c3ccc(OC)c(Cl)c3)C2)CC1` (stereo unspecified) the Potency was “inactive”.
In the case of `COc1ccc(N=Cc2c(O)n(-c3cccc(C)n3)c(=O)c3ccccc23)cc1`, the Potency is reported as inconclusive: 100 µM [inhibitor, single point].
With `O=c1[nH]c(SCc2ccc(F)cc2)nc2c1cnn2-c1ccc(F)cc1` the Potency was inconclusive: 89.1 µM [inhibitor, single point].
In the case of `CCOCC(=O)Nc1cccc(NC(C)=O)c1`, the Potency is reported as “inactive”.
With `O=C(NC1CC(=O)N(c2ccc(Cl)cc2)C1)c1cccs1` (stereo unspecified) the Potency was “inactive”.
For `COc1ccc(-n2c(SC(C)C(=O)Nc3ccc(NC(C)=O)cc3)nc3ccccc3c2=O)cc1OC` (stereo unspecified), the Potency was inconclusive: 70.8 µM [inhibitor, single point].
For `NC(=NCCc1ccccc1)c1cccc([N+](=O)[O-])c1`, the Potency was “inactive”.
With `Cc1ccc(N(Cc2ccccc2)C(=O)c2ccc(S(=O)(=O)N3CCOCC3)cc2)cc1` the Potency was inconclusive: 79.4 µM [inhibitor, partial curve, poor fit].
For `Fc1ccc(F)c(C2=NNC(=NCC3CCCO3)SC2)c1` (stereo unspecified), the Potency was inconclusive: 15.8 µM [inhibitor, partial curve, poor fit].
With `CCOC(C)=O` the Potency was “inactive”.
With `COc1ccc(S(=O)(=O)N2CCCN(CCC(=O)Nc3cccc(C(F)(F)F)c3)CC2)cc1` the Potency was inconclusive: 50.1 µM [inhibitor, partial curve, poor fit].
`O=c1[nH]c(SCc2ccc(Br)cc2)nc2c1CCCC2` was tested, and the Potency was inconclusive: 39.8 µM [inhibitor, partial curve, poor fit].
With `CC(C)c1[nH]c(=O)c(C#N)c2c1CSC(C)(C)C2` the Potency was inconclusive: 89.1 µM [inhibitor, single point].
`COc1ccc(S(=O)(=O)NCC(c2ccc(F)cc2)N2CCN(C)CC2)cc1` (stereo unspecified) was tested, and the Potency was inconclusive: 79.4 µM [inhibitor, partial curve, poor fit].
For `OCCCc1cn(Cc2ccccc2)c2ccccc12`, the Potency was inconclusive: 89.1 µM [inhibitor, single point].
For `O=C(NCc1ccc(Cl)cc1)c1ccc(Cl)cc1[N+](=O)[O-]`, the Potency was inconclusive: 0.794 µM [inhibitor, full curve, poor fit].
`CN=c1scc(-c2ccccc2F)n1/N=C/c1ccc[nH]1` was tested, and the Potency was active: 17.8 µM.
With `COc1ccc(S(=O)(=O)N(C)CC(=O)N2CCCCCC2)cc1` the Potency was inconclusive: 79.4 µM [inhibitor, single point].
With `OCCN(CCO)CC(O)Cn1c2ccccc2c2ccccc21` (stereo unspecified) the Potency was inconclusive: 89.1 µM [inhibitor, single point].
With `Cc1noc(C)c1COc1ccccc1C(=O)N1CCN(S(=O)(=O)c2cccc(Cl)c2)CC1` the Potency was “inactive”.
`COc1ccccc1N1C(=O)CC(N(O)c2ccccc2)C1=O` (stereo unspecified) was tested, and the Potency was inconclusive: 50.1 µM [inhibitor, partial curve].
For `CCOC(=O)c1ccc(S(=O)(=O)Nc2ccc(N3CCOCC3)cc2)cc1`, the Potency was active: 79.4 µM.
For `Cc1ccc(NC(=O)CNc2ccc(OC(C)C)cc2)cc1`, the Potency was active: 0.794 µM.
For `COC(=O)COc1ccc(C2NC(=O)NC(c3ccccc3)=C2C(C)=O)cc1Br` (stereo unspecified), the Potency was inconclusive: 70.8 µM [inhibitor, partial curve, poor fit].
In the case of `Cc1ccc(N2C(=O)CC(Sc3ccccc3C(=O)O)C2=O)cc1` (stereo unspecified), the Potency is reported as inconclusive: 1.58 µM [inhibitor, full curve, poor fit].
`COC(=O)c1cc2ccsc2n1CC(=O)Nc1ccc(N(C)C)cc1` was tested, and the Potency was inconclusive: 1.41 µM [inhibitor, partial curve, poor fit].
With `Cc1c(C(=O)N2CCC(C(=O)Nc3ccc(F)cc3)CC2)sc2nc[nH]c(=O)c12` the Potency was “inactive”.
`CCOc1ccc(NC(=O)CCN2CCN(S(=O)(=O)c3ccc(Cl)cc3)CC2)cc1` was tested, and the Potency was “inactive”.
With `O=C(O)Cn1ncn(-c2ccc(OC(F)(F)F)cc2)c1=O` the Potency was inconclusive: 39.8 µM [inhibitor, partial curve].
With `Cc1ccc(N2C(=O)c3ccc(C(=O)NCCN4CCOCC4)cc3C2=O)cc1` the Potency was inconclusive: 89.1 µM [inhibitor, partial curve, poor fit].
With `O=C(CN1CCCC1)Nc1ccc(Br)cc1` the Potency was active: 4.47 µM.
In the case of `CCOc1ccc(CNC(=O)c2ccc(CS(=O)c3ccccc3)o2)cc1` (stereo unspecified), the Potency is reported as “inactive”.
In the case of `NS(=O)(=O)c1ccc(CNc2ccc3ccccc3n2)cc1`, the Potency is reported as inconclusive: 89.1 µM [inhibitor, single point].
With `COc1ccc(/C=N/NS(=O)(=O)c2ccc(F)cc2)cc1COc1cc(F)ccc1[N+](=O)[O-]` the Potency was active: 6.31 µM.
With `CC(=O)N1CCc2cc(S(=O)(=O)NCCC(=O)NCCc3ccccc3)ccc21` the Potency was “inactive”.
For `O=C(CSc1nnc(-c2cccc(S(=O)(=O)N3CCCC3)c2)n1-c1ccccc1)Nc1ccc(C(=O)O)cc1`, the Potency was inconclusive: 17.8 µM [inhibitor, full curve].
With `CCOC(=O)c1c(-n2cnnn2)sc(C)c1C` the Potency was active: 8.91 µM.
In the case of `COc1ccc(NC(=O)c2ccc(NCCN3C(=O)CCC3=O)c([N+](=O)[O-])c2)cc1`, the Potency is reported as inconclusive: 39.8 µM [inhibitor, partial curve, poor fit].
In the case of `CC(=O)N1CCCc2ccc(NS(=O)(=O)c3ccc(F)cc3F)cc21`, the activity, negative = inhibition is reported as inactive: -4.23% [at 12.7 µM].
In the case of `COc1ccc(S(=O)(=O)N2CCC(C(=O)N3CCCC3)CC2)cc1`, the Potency is reported as inconclusive: 28.2 µM [inhibitor, single point].
`CC(CCC(=O)O)C1CC[C@@]2(C)C3C(=O)CC4C(C)(C)C(O)CC[C@]4(C)C3C(=O)C[C@]12C` (stereo partly specified) was tested, and the Potency was inconclusive: 89.1 µM [inhibitor, single point].
For `Cc1ccc(N2CC(NC(=O)c3ccc4c(c3)OCO4)CC2=O)cc1` (stereo unspecified), the Potency was “inactive”.
`O=[N+]([O-])c1cccc(/C=N/NC2CCS(=O)(=O)C2)c1` (stereo unspecified) was tested, and the Potency was inconclusive: 17.8 µM [inhibitor, partial curve, poor fit].
In the case of `Cc1ccc(NC(=O)c2cccc(C(=O)Nc3ccc(C)cc3C(=O)O)c2)c(C(=O)O)c1`, the activity, negative = inhibition is reported as inactive: 1.26% [at 2.33 µM].
In the case of `N#C/C(=C/c1ccc(Br)o1)C(N)=S`, the Potency is reported as active: 31.6 µM.
For `COc1ccc([N+](=O)[O-])cc1NCc1ccccc1C`, the Potency was inconclusive: 79.4 µM [inhibitor, single point].
`N#CC1=C(N)Oc2n[nH]c(CSc3ccccc3)c2C12C(=O)Nc1ccccc12` (stereo unspecified) was tested, and the Potency was “inactive”.
`O=C(Cn1cnc([N+](=O)[O-])n1)N/N=C/c1ccc(O)cc1O` was tested, and the Potency was “inactive”.
`CCCOC(=O)c1cccc(Nc2nc(-c3cccnc3)nc3ccccc23)c1` was tested, and the Potency was inconclusive: 22.4 µM [inhibitor, single point].
For `S=C1NC[C@H](c2ccccc2)N1CC1CCCCC1`, the activity, negative = inhibition was inactive: 9.05% [at 12.7 µM].
With `CCOC(=O)c1ccc(NS(=O)(=O)c2ccc3c(c2)CCCN3C(C)=O)cc1` the Potency was inconclusive: 22.4 µM [inhibitor, partial curve, poor fit].
For `C/C(=N\Nc1nc2ccccc2[nH]1)c1ccc(C)o1`, the Potency was “inactive”.
`Cn1nc(OC(=O)Nc2cccc(Cl)c2)cc1C(F)(F)F` was tested, and the Potency was inconclusive: 89.1 µM [inhibitor, single point].
With `Cc1ccc(NC(=O)CCCc2nc3ccccc3c(=O)[nH]2)c(Cl)c1` the Potency was “inactive”.
For `Cn1c(Oc2ccc(F)cc2)nc2c1c(=O)n(Cc1ccccc1Cl)c(=O)n2C`, the Potency was inconclusive: 28.2 µM [inhibitor, partial curve, poor fit].
For `Cc1cccc2c1NC(=O)/C2=C\C(=O)c1cccs1`, the Potency was inconclusive: 31.6 µM [inhibitor, single point].
With `CSc1ccccc1OCc1cc(C(=O)N2CCc3[nH]cnc3C2c2ccccn2)no1` (stereo unspecified) the Potency was inconclusive: 44.7 µM [inhibitor, partial curve, poor fit].
With `CC(C)c1ccc(NC2CCCN(C(=O)CCN3CCOCC3)C2)cc1` (stereo unspecified) the Potency was inconclusive: 79.4 µM [inhibitor, partial curve, poor fit].
With `COCC1COS(=O)(=O)NC1(C)C` (stereo unspecified) the Potency was “inactive”.
With `COc1ccc(Cl)cc1NC(=S)NCCc1ccc(S(N)(=O)=O)cc1` the Potency was inconclusive: 70.8 µM [inhibitor, partial curve].
For `COc1ccc2oc(C(=O)OCc3nnc(-c4ccccc4)o3)c(C)c2c1`, the activity, negative = inhibition was inactive: 11.5% [at 12.7 µM].
For `Cc1cc(NC(=O)CN2C(=O)NC(c3ccccc3)(c3ccc(C)c(C)c3)C2=O)no1` (stereo unspecified), the Potency was active: 17.8 µM.
`CC(C)c1ccc(Nc2c(-c3ccccc3O)nc3cnccn23)cc1` was tested, and the Potency was inconclusive: 10 µM [inhibitor, partial curve].
In the case of `COc1ccc(OCc2nn3c(-c4cccc(OC)c4)nnc3s2)cc1`, the Potency is reported as inconclusive: 17.8 µM [inhibitor, partial curve, poor fit].
